# Assay results published in ChEMBL document CHEMBL4888484, “Replenishing the malaria drug discovery pipeline: Screening and hit evaluation of the MMV Hit Generation Library 1 (HGL1) against asexual blood stage Plasmodium falciparum ,using a nano luciferase reporter read-out” (2022).
# The campaign covered roughly 150,000 compounds. About 540 (0.36%) showed an effect of 50% or more. The list shows a part of the results.
# Test system: Plasmodium falciparum
# Assay: Primary screen in NF54 nanoGlo assay, in single point, at 2uM, 72h; a lower Z score goes with more inhibition
# Format: functional, Erythrocyte
# Details: timepoint 72 hour
Structure (SMILES),% Inhibition [%],Z score
Cc1nnsc1C(=O)N(C)CC[C@H]1CCCO1,-12,2.26
Cc1n[nH]c(C)c1CN1CCC[C@H](CNC(=O)NC2CCCC2)C1,2,-0.2
NC(=O)C1(CC2CC2)CCN(Cc2ccncc2F)CC1,0,0.05
c1ccc(C2CN(c3ncnc4[nH]cnc34)C2)nc1,-3,0.45
Cc1ccc(NC(=O)Cn2nc3c(N4CC(C)CC(C)C4)nccn3c2=O)cc1 (stereo not given),-9,1.42
CO[C@@H](C)C(=O)Nc1c(C(O)(C(F)(F)F)C(F)(F)F)cnn1C(C)C,5,-0.65
CCn1cc(NC(=O)NCCN2CC[C@H](c3ccccc3C)C2)nn1,3,-0.48
CC(C)N(CCN(C)C)C(=O)Nc1ccc(-n2ncn(C)c2=O)cc1,-11,1.76
Cc1ccc(S(=O)(=O)C[C@H](CN2CCCC2)N2CCCC2)cc1,31,-3.47
CO[C@@]1(CNC(=O)c2ccc(OC(C)(C)C)cn2)CCOC1,-12,1.72
CC(C)[C@]1(C)CC(=O)N(CCOCC(F)F)C1=O,-6,0.7
OCCOCCNCc1cccc(Cl)c1,28,-3.74
Cc1c(COc2ccccc2)cccc1N[C@H]1CCNC1=O,-11,1.36
CN(C[C@H]1CCCN1C)c1ccnc(C(=O)NCc2cccnc2)c1,5,-1
CC1CCN(S(=O)(=O)c2cc(-c3nnc(C(C)C)o3)co2)CC1,5,-0.66
CC(C)(C)OC(=O)N1CC(N2CCC(S(N)(=O)=O)CC2)C1,-4,0.67
COC1CN(C(=O)Nc2ccc3c(c2)C(=O)CCC3)CCC1C (stereo not given),-10,1.9
Cc1ccc(CNc2nc(C)nc3c(-c4ccc(C)cc4)noc23)cc1,-20,2.54
COc1cccc(C(=O)N2CC(C(=O)NCC3CC3)C(c3cccc(OC)c3OC)C2)c1 (stereo not given),0,0.01
COc1cccc([C@H]2CC(=O)Nc3nc(N)sc32)c1OCc1ccc(Cl)cc1,-8,0.84
CCC(C)CC(C)NC(=O)Nc1cc(S(C)(=O)=O)ccc1F (stereo not given),0,0
Cc1c(Cl)cccc1C(=O)NC[C@H](CC1CC1)C(=O)O,-5,0.69
CC(c1ccccc1)C(C)(O)C(=O)NCC1CCC(C)(C)O1 (stereo not given),4,-0.38
CCc1cccc(C)c1NC(=O)CN(C)CC(=O)N1CCN(Cc2ccccc2)CC1,-3,0.36
C[C@H]1c2ccccc2CCN1CCc1nc2ccccc2c(=O)[nH]1,-6,1.14
CCOc1ccc([C@H]2C(=O)N(C3CCCCCC3)CC(=O)N2Cc2ccc(OC)cc2)cc1OC,9,-1.53
CN(C)C(=O)CNC(=O)COc1ccc(Cl)cc1,1,-0.16
COc1ccccc1CCNC(=O)C1Cc2cc(C(F)(F)F)ccc2N2CCN(c3ncccn3)CC12 (stereo not given),-4,0.7

Structure (SMILES),% Inhibition [%],Z score
O=C(NCc1noc(Cc2ccccc2)n1)c1coc(C2CC2)n1,-6,0.88
CC1CC1C(=O)NCc1nnnn1C1CC1 (stereo not given),-12,1.58
CCCC[C@H](CC)C(=O)NC1CCCCC1,36,-0.74
O=C(CC1(C(F)(F)F)CC1)N1CC[C@@H](c2ccccc2)S1(=O)=O,3,-0.29
O=C(c1cccc(-n2cccn2)n1)N1CCC=Cc2ccccc21,-8,1.16
O=C(CCC1CCCC1)N1CCC(N2CCCCCC2)CC1,36,-0.84
Cc1cc(Cc2ccc(S(=O)(=O)Nc3ccc(C)c(C)c3)cc2)c(=O)[nH]n1,-4,0.37
Cc1cc(C)cc(C(=O)N2CCN(c3cc(-c4ccc(Cl)cc4)ncn3)CC2)c1,-9,1.31
O=C([C@@H](c1ccccc1)C1CC1)N1CCc2cnccc21,-17,1.79
CCc1nc(C(=O)N2CCN(Cc3ccccc3)C[C@@H]2CC)co1,2,-0.3
CCC(NCC1CCCn2ccnc21)C(=O)Nc1cc(C)on1 (stereo not given),13,-1.5
CCc1nccn1CCC(=O)N(CC(C)C)CC1CCN(Cc2ccccc2OC)CC1,-8,1.2
C[C@H](NC(=O)CCc1c[nH]c2ccccc12)c1ccco1,6,-0.75
Cc1cc(NC(=O)c2nc3ccccn3c2F)ccc1N1CCCC1=O,-19,1.9
Cc1cc(Cn2cc3c4c(cccc42)[C@H](CC(C)C)N[C@H](C(=O)NCCN2CCOCC2)C3)no1,-12,1.84
CN(C(=O)c1ccccn1)C1(C(=O)NC2CCCCC2)CCCCC1,-6,0.68
O=C(NCC1CCN(C(=O)c2ccc[nH]2)CC1)c1ccoc1,-5,0.73
CCc1cc(C(=O)Nc2c(OC)ncnc2N(C)C)sc1C,-6,0.94
Cn1ccc([C@@H]2CCCCCN2C(=O)c2ccccc2F)n1,4,-0.56
C[C@@H]1OCCO[C@@H]1C(=O)Nc1nc2cnccc2[nH]1,11,-1.65
CCCCc1ccc(N(C)C(=O)c2ccc3nncn3c2)cc1,-10,1.5
CN(Cc1ccc(OC23CCCN(CC2)C3)cc1)Cc1ncc[nH]1 (stereo not given),-18,1.94
CCc1ccc(NC(=O)N2CCC3(CCC(=O)N(CC4CC4)C3)CC2)cc1,4,-0.7
Cc1ccc(N2CC(C(=O)NCC(O)CN3CCOCC3)CC2=O)cc1 (stereo not given),-2,0.26
COc1ccc(Cn2nc(C3CC3)nc2C2CC2)cc1,4,-0.57
COc1ccc(OC)c(CNC(=O)CN2CCn3nc(-c4ccc(Cl)cc4)cc3C2=O)c1,-5,0.6
COC(=O)[C@H]1CC[C@@H](Nc2ccc(C#N)cc2F)C1,0,0.05
